Results taken from PMC4336329 (PLoS ONE, 2015).
Screen size: about 310,000 compounds; about 2,200 (0.71%) showed an effect of 50% or more. Effects have a minus sign here. This is one part of the list.

Target: human ether-à-go-go-related gene (hERG) potassium channel (human, UniProt Q12809)
Assay: primary screen, population patch clamp on CHO cells stably expressing hERG

human ether-à-go-go-related gene (hERG) potassium channel, sequence (Q12809 whole entry, looked up): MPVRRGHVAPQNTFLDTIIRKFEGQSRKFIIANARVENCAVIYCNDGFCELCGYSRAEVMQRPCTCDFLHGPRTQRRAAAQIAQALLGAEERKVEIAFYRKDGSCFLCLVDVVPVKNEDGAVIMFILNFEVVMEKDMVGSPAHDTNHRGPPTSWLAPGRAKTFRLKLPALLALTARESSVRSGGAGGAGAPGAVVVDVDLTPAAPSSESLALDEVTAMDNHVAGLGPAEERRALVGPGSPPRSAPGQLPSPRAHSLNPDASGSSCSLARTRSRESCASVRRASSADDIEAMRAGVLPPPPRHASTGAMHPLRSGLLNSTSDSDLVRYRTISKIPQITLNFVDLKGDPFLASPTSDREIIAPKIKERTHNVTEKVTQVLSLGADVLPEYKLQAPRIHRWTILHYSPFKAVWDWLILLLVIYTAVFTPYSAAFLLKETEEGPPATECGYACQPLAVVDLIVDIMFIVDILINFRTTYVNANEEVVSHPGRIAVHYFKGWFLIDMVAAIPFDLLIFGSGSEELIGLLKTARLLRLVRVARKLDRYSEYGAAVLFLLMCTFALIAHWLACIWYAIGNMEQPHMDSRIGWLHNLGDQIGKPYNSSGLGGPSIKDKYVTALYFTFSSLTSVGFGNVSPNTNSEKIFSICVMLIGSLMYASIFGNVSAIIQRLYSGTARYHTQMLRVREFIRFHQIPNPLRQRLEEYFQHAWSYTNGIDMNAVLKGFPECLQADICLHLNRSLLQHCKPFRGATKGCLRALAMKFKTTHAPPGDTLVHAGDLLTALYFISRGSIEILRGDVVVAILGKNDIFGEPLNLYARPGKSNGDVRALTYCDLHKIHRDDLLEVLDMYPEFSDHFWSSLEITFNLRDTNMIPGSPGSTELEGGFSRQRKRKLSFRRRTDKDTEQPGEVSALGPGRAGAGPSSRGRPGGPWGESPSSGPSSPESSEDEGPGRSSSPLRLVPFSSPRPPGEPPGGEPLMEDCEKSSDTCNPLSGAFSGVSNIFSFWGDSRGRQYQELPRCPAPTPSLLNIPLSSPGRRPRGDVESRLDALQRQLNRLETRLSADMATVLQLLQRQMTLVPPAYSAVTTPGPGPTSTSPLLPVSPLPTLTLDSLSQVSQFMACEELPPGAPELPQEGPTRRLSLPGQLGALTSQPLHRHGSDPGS

First: COc1ccc(CCNc2c3ccccc3nc3ccccc23)cc1OC.Cl
Second: COc1cc2oc3ccccc3c(=O)c2cc1OC
The “hERG current change (%, negative = inhibition) at 1uM” value of the first is lower: -59.8% for the first, 4.09% for the second.

Going from `C=CCC(C#Cc1ccccc1)N(C)C` (centres unmarked) to `CCOCCCNC(=O)N[C@@H](Cc1ccccc1)C(=O)OC`, the “hERG current change (%, negative = inhibition) at 1uM” value rises from -9.85% to 14.4%.

Going from `Cc1ccc(NC(=O)CN(C)C(=O)Cn2ncc(Cl)c(Cl)c2=O)cc1` to `CN(CC(=O)Nc1ccc(Cl)cc1)C(=O)c1cc(-c2cccs2)nn1-c1ccccc1`, the “hERG current change (%, negative = inhibition) at 1uM” value falls from 13% to 4.37%.

Compared with `CC1CCC(C(C)C)C(OC(=O)C[n+]2cc(-c3ccc(Cl)cc3)n3c2CCCCC3)C1.[Cl-]` (centres unmarked), `Cc1ccc(-c2c[n+](CC(=O)Nc3c(C)cccc3C)c3n2CCC3)cc1.[Cl-]` is higher in “hERG current change (%, negative = inhibition) at 1uM” value: -19.9% for the first, 7.88% for the second.

Compared with `COc1ccc(C(=O)c2nc3c(n2O)CCCC3)cc1OC`, `COc1ccc(CNCCNC(=O)c2nonc2N)cc1OC.Cl` is higher in “hERG current change (%, negative = inhibition) at 1uM” value: 14.6% for the first, 16.5% for the second.

First: Cc1cccc(NC(=O)c2ccc(COc3ccccc3)o2)n1
Second: O=C(Nc1ccc(F)cc1)c1ccc(CSc2ccccc2)o1
The “hERG current change (%, negative = inhibition) at 1uM” value of the first is lower: 2.11% for the first, 9.84% for the second.

First: Cc1ccc(-n2cc(CN3CCN(c4ccccn4)CC3)c(-c3ccc(F)cc3)n2)cc1
Second: CN1CCCN(C(=O)c2cc(-c3cccc4ccccc34)nc3ccccc23)CC1.Cl
The “hERG current change (%, negative = inhibition) at 1uM” value of the first is higher: 8.06% for the first, -27.9% for the second.

Going from `CC(CN1CCCCC1)OC(=O)COc1ccc(Br)cc1` (centres unmarked) to `COc1ccccc1OCC(O)CN1CCOCC1` (centres unmarked), the “hERG current change (%, negative = inhibition) at 1uM” value rises from 12.4% to 14.9%.

First: COCCC(=O)Nc1ccc2c(c1)CN(C(=O)c1ccc(CSC)o1)CC2
Second: CCOC(=O)N1CCN(C(=O)Nc2ccc3nc(C)c(C)nc3c2)CC1
The “hERG current change (%, negative = inhibition) at 1uM” value of the first is higher: 12.3% for the first, 4.44% for the second.

Compared with `O=C(O)CC(NCc1ccco1)C(=O)OCC1CCCO1` (centres unmarked), `O=C(CSCc1c(F)cccc1Cl)NCc1ccco1` is higher in “hERG current change (%, negative = inhibition) at 1uM” value: 4.95% for the first, 16.7% for the second.

Going from `CCc1ccc(OCC(=O)Nc2nnc(-c3ccco3)s2)cc1` to `Cc1ccc(OCc2nnc(SCC(=O)c3ccccc3)n2Cc2ccco2)cc1`, the “hERG current change (%, negative = inhibition) at 1uM” value falls from 19.4% to -15.6%.

Compared with `COc1ccc(C2N=C(N)N=C(N)N2c2ccccc2OC)cc1OC.Cl` (centres unmarked), `COc1cccc2[nH]c(C(=O)NCc3ccccc3)cc12.Cl` is higher in “hERG current change (%, negative = inhibition) at 1uM” value: 7.87% for the first, 10.2% for the second.

Compared with `CN(C)CCCNCC(=O)NN(c1ccccc1)c1ccccc1.O=C(O)C(=O)O`, `O=C(NCCc1ccccc1)C1CCCN1C(=O)Nc1ccccc1` (centres unmarked) is higher in “hERG current change (%, negative = inhibition) at 1uM” value: 6.83% for the first, 15.1% for the second.

First: O=C1C2C3C=CC(C4CC34)C2C(=O)N1/N=C/c1ccc(-c2ccc([N+](=O)[O-])cc2)o1 (centres unmarked)
Second: Cc1ccc(-n2[nH]c(C)c(/C=N/NC(=O)c3cccc([N+](=O)[O-])c3)c2=O)cc1C
The “hERG current change (%, negative = inhibition) at 1uM” value of the first is higher: 15.5% for the first, -5.98% for the second.

Going from `Cc1ccc(C23CC4CC(CC(C(=O)NCC(=O)O)(C4)C2)C3)cc1` to `CCOC(=O)C1CCN(C(=O)c2sc3nc(-c4ccc(F)cc4)cn3c2C)CC1`, the “hERG current change (%, negative = inhibition) at 1uM” value falls from 14% to -22.1%.

Compared with `O=C(CSCc1c(Cl)cccc1Cl)NN1C(=O)c2ccccc2C1=O`, `CC(C)CNC(=O)c1ccc2c(c1)C(=O)N(Cc1ccco1)C2=O` is higher in “hERG current change (%, negative = inhibition) at 1uM” value: -3.03% for the first, 1.79% for the second.

Compared with `O=C(c1ccc(Cl)cc1[N+](=O)[O-])N1CCOCC1`, `CS(=O)(=O)N1CCN(c2ccc([N+](=O)[O-])c(NCc3ccc(Cl)cc3)c2)CC1` is lower in “hERG current change (%, negative = inhibition) at 1uM” value: 11% for the first, 9.72% for the second.

Compared with `Cc1ccccc1NC(=O)CSc1nnc2ccc(-c3cccnc3)nn12`, `COC(=O)c1cn(Cc2cccnc2)c(=O)c2ccccc12` is higher in “hERG current change (%, negative = inhibition) at 1uM” value: 6.48% for the first, 12.8% for the second.

Going from `Cc1nc(NCCc2ccc(O)cc2)c2nnn(Cc3ccccc3)c2n1` to `COc1ccc(N=C2SCC(=O)N2Cc2ccccc2)cc1`, the “hERG current change (%, negative = inhibition) at 1uM” value falls from 3.8% to 0.201%.

Compared with `CCN(C(=O)c1cc(S(=O)(=O)N2CCOCC2)cn1C)c1cccc(C)c1`, `Cn1cc(S(=O)(=O)N2CCC(Cc3ccccc3)CC2)c(=O)n(C)c1=O` is higher in “hERG current change (%, negative = inhibition) at 1uM” value: -15.6% for the first, 3.02% for the second.

First: C=CCN(CC=C)C(=O)C1CCN(Cc2ccc(OCc3ccccc3)cc2)CC1.O=C(O)C(=O)O
Second: O=C(NCc1ccccc1)C1=C[C@H](C2CCCCC2)C[C@H](OCc2ccc(CO)cc2)O1
The “hERG current change (%, negative = inhibition) at 1uM” value of the first is lower: -40.6% for the first, 8.77% for the second.

First: COc1ccc(C(=O)Cn2nnc(-c3ccccc3NC(=O)c3ccco3)n2)cc1
Second: Cc1cccc(C(=O)Nc2sc(-c3ccccc3)cc2C(=O)O)c1
The “hERG current change (%, negative = inhibition) at 1uM” value of the first is higher: 3.17% for the first, 2.46% for the second.

Compared with `O=C(Cc1cccs1)Nc1ccc(F)c(F)c1`, `O=C(Nc1ccc2c(c1)OCCO2)c1ccccc1` is lower in “hERG current change (%, negative = inhibition) at 1uM” value: 18.1% for the first, 10.3% for the second.

Compared with `O=C(CSc1nnnn1C1CCCC1)N1CCN(C(=O)c2ccco2)CC1`, `CN(C(=O)c1ccc(NC(=O)Cc2cccc(NC(=O)C3CCCN(C(=O)CCc4ccccc4)C3)c2)cc1)C1CCCC1` (centres unmarked) is higher in “hERG current change (%, negative = inhibition) at 1uM” value: 8.87% for the first, 13.7% for the second.

Going from `O=C(Nc1ccc2nc3n(c(=O)c2c1)CCCCC3)c1cc([N+](=O)[O-])ccc1F` to `Cc1cccc2nc(CSc3nc4ccc([N+](=O)[O-])cc4[nH]3)c(Br)n12`, the “hERG current change (%, negative = inhibition) at 1uM” value falls from -0.984% to -7.53%.

Going from `O=C(c1ccccc1)c1ccc(N=Nc2c(O)[nH]c(=O)[nH]c2=O)cc1` to `CCCOc1ccc(C(=O)N/N=C/c2c[nH]c3ccc(Br)cc23)cc1`, the “hERG current change (%, negative = inhibition) at 1uM” value rises from 11.4% to 16.7%.

First: CCOC(=O)c1cnc(SCC(=O)c2ccccc2)nc1N
Second: O=C(CSc1nc(=O)n2ccccc2n1)OCc1ccccc1
The “hERG current change (%, negative = inhibition) at 1uM” value of the first is higher: 8.55% for the first, 2.37% for the second.

Going from `COc1cc(OC)cc(C(=O)N2c3ccc(F)cc3CCC2C)c1` (centres unmarked) to `COc1ccc(OC)c(C2C(C(=O)c3cccs3)=C(O)C(=O)N2c2cc(C)on2)c1` (centres unmarked), the “hERG current change (%, negative = inhibition) at 1uM” value falls from 20.1% to 10.7%.

Going from `O=[N+]([O-])c1ncccc1OCc1ccc(Cl)c(Cl)c1` to `CN(CC(=O)Nc1ccccc1C(F)(F)F)C(=O)COc1cccnc1[N+](=O)[O-]`, the “hERG current change (%, negative = inhibition) at 1uM” value rises from 9.43% to 11.9%.

First: CC(=O)c1cccc(NC(=O)Nc2ccc3c(c2)OCO3)c1
Second: CC(C)c1ccc(NC(=O)c2cc(S(=O)(=O)NCC3COc4ccccc4O3)ccc2F)cc1 (centres unmarked)
The “hERG current change (%, negative = inhibition) at 1uM” value of the first is higher: 12% for the first, 8.7% for the second.

Going from `O=[N+]([O-])c1cc(C(F)(F)F)ccc1NCCc1ccncc1` to `O=C(COC(=O)/C=C/c1cccc(C(F)(F)F)c1)NCCN1C(=O)CSC1=O`, the “hERG current change (%, negative = inhibition) at 1uM” value falls from 14% to 4.67%.

First: O=C(CN1C(=O)NC2(CCCC2)C1=O)Nc1nc2c(F)cc(F)cc2s1
Second: Cc1nn(-c2ccc(F)cc2)c2sc(C(=O)N3CCCCCC3)cc12
The “hERG current change (%, negative = inhibition) at 1uM” value of the first is higher: 2.33% for the first, -3.99% for the second.

Going from `CCc1cc(C)cc(OCCNC(=O)c2ncn[nH]2)c1` to `CCOC(=O)c1cc(NC(=O)SCC(=O)O)c(C)nc1C`, the “hERG current change (%, negative = inhibition) at 1uM” value falls from 13.9% to -9.62%.

Compared with `O=C(CNS(=O)(=O)c1cccc(Cl)c1)OCc1csc(-c2ccccc2)n1`, `CCOC(=O)[C@H]1[C@H]2COc3ccc(Cl)cc3[C@@H]2N2C(=O)CN(Cc3ccccc3)C(=O)[C@@]12C` is higher in “hERG current change (%, negative = inhibition) at 1uM” value: 2% for the first, 7.79% for the second.

Compared with `COc1ccc(/C=C2/C(=O)NC(=O)N(c3ccc(C)c(C)c3)C2=O)cc1CN1C(=O)c2ccccc2C1=O`, `CC1(C)c2ccccc2N2CC(=O)N[C@@]21/C=C/C=C/c1ccccc1` is higher in “hERG current change (%, negative = inhibition) at 1uM” value: -3.04% for the first, 12.4% for the second.

First: COC(=O)Nc1ccc(S(=O)(=O)Nc2cc(OC)nc(OC)n2)cc1
Second: COC(=O)CSc1nnc(CNS(=O)(=O)c2ccc(C)cc2)n1C
The “hERG current change (%, negative = inhibition) at 1uM” value of the first is higher: 7.33% for the first, -1.61% for the second.

First: COc1cccc(C2CC3(CC(C)(C)NC(=S)N3)Oc3cc(O)ccc32)c1 (centres unmarked)
Second: CN1c2ccccc2C2(C)CCCC3=Cc4cccc([N+](=O)[O-])c4OC312 (centres unmarked)
The “hERG current change (%, negative = inhibition) at 1uM” value of the first is lower: 8.7% for the first, 8.76% for the second.

Going from `Cc1cccc(C)c1NC(=O)CN(C)CC(=O)N(C)CC(=O)Nc1ccccc1Br` to `Cc1ccc(S(=O)(=O)NCCCCC(NC(=O)OC(C)(C)C)C(=O)O)cc1.c1ccc(Nc2ccccc2)cc1` (centres unmarked), the “hERG current change (%, negative = inhibition) at 1uM” value falls from 16.6% to 14.2%.

Compared with `O=C1CC(c2ccc(Cl)cc2)CC(O)=C1C=NCCO` (centres unmarked), `CN1CCc2c(sc(/N=C/c3c[nH]c4ccccc34)c2C#N)C1` is lower in “hERG current change (%, negative = inhibition) at 1uM” value: 10.6% for the first, 9.8% for the second.

Going from `CCC(C)(C)n1nnnc1C(C(C)C)N1CCC(C(N)=O)CC1` (centres unmarked) to `CN(CCNC(=O)C1CCN(S(=O)(=O)c2cnc[nH]2)CC1)Cc1ccccc1`, the “hERG current change (%, negative = inhibition) at 1uM” value rises from 9.79% to 11.1%.

Going from `Cl.O=C(OCCN1CCOCC1)C1(c2ccccc2)CCCC1` to `CC(=O)N(C(C)=O)S(=O)(=O)c1ccc(N=NN2CCOCC2)cc1`, the “hERG current change (%, negative = inhibition) at 1uM” value rises from 11.4% to 12%.

First: O=C1CSC(=Nc2cccc([N+](=O)[O-])c2)N1
Second: O=c1[nH]c(=S)n(-c2ccc(Br)cc2)c2ncccc12
The “hERG current change (%, negative = inhibition) at 1uM” value of the first is lower: 9.4% for the first, 13.9% for the second.

First: CCC1(C)N(O)C(C)(C)C(c2ccc(OC)cc2)=[N+]1[O-] (centres unmarked)
Second: Cc1cc(NC(=O)CSc2nc(-c3ccc(F)cc3)cs2)no1
The “hERG current change (%, negative = inhibition) at 1uM” value of the first is lower: 12.3% for the first, 21% for the second.
